# Results taken from the supplement of paper PMC10322689.
# Structures can show the parent of a compound that is named as a salt. ± gives the standard deviation of the averaged measurements. Some of the results follow. Single values are uncertain, as repeats are few or missing.
# Test system: mouse mesenchymal chondrosarcoma cells (HEY1-NCOA2)
# Experiment: XTT absorbance relative to DMSO control (cell viability) (fraction of DMSO control); higher = more viable cells / less growth inhibition
row,Compound,XTT absorbance
1,O=C(O)c1nn(Cc2ccc(Cl)cc2Cl)c2ccccc12 [Lonidamine],0.919
2,CC[C@H]1/C=C/C=C/C[C@@H](C)[C@H](O)[C@@](C)(O)C(=O)[C@@H](C)[C@H](O)[C@@H](C)C(=O)[C@@H](C)[C@H](O)[C@@H](C)/C=C/C(=O)O[C@@H]2[C@H](C)[C@H](CC1)O[C@]1(CC[C@H](C)[C@H](C[C@@H](C)O)O1)[C@H]2C [Oligomycin],1.09
3,C[C@H]1CCC/C=C/[C@@H]2C[C@H](O)C[C@H]2[C@H](O)/C=C/C(=O)O1 [brefeldin A],0.188
4,CN(N=O)c1cc(O)ccc1O [Dephostatin],0.908
5,O=C1Nc2ccccc2C2(CCN(CCc3ccc(C(F)(F)F)cc3)CC2)O1,0.981
6,COc1ccc2c3c([nH]c2c1)[C@H](C=C(C)C)N1C(=O)[C@@H]2CCCN2C(=O)[C@@H]1C3 [Fumitremorgin C],0.915
7,CN1C(=O)CN=C(c2ccc(Cl)cc2)c2cc(Cl)ccc21,0.945
8,CC(C)(C)c1cc(C=C(C#N)C#N)cc(Br)c1O,0.905 ± 0.062
9,COc1ccc(C[C@H]2NC[C@H](O)[C@H]2OC(C)=O)cc1 [anisomycin],0.23
10,NC(=S)N/N=C\c1coc2ccccc2c1=O.[Cl][Cu][Cl] [Akt Inhibitor XI],0.972
11,C#CCN(C)C(C)Cc1ccccc1 (configuration not stated) [Deprenyl],0.932
12,CNc1ccc2oc(C[C@H]3O[C@@]4(CC[C@H]3C)O[C@H]([C@H](C)C(=O)c3ccc[nH]3)[C@H](C)C[C@H]4C)nc2c1C(=O)O,0.823
13,C=C(C)[C@H]1Cc2c(ccc3c2O[C@@H]2COc4cc(OC)c(OC)cc4[C@@H]2C3=O)O1 [Rotenone],0.724
14,N[C@@H]1C[C@H]1c1cc(F)cc(F)c1OCc1ccccc1 [S2101 (LSD1 inhibitor II)],0.976
15,"N=C(N)NN [Aminoguanidine, HCl]",0.889
16,CC1=C2C(=O)[C@H]3[C@@H](CC=C4C[C@@H](O)CC[C@@]43C)[C@@H]2CC[C@]12O[C@@H]1C[C@H](C)CN[C@H]1[C@H]2C [Jervine],1.04
17,C[C@]12CCC(=O)C(O)=C1CC[C@@H]1[C@@H]2CC[C@]2(C)C(=O)CC[C@@H]12 [Formestane],1.03
18,CO/C1=C\C(C)=C\[C@@H](C)[C@@H](O)[C@@H](C)C/C(C)=C/C=C/[C@H](OC)[C@@H]([C@@H](C)[C@@H](O)[C@H](C)[C@@]2(O)C[C@@H](O)[C@H](C)[C@@H](C(C)C)O2)OC1=O [Bafilomycin A1],0.765
19,CN[C@@H]1C[C@H]2O[C@@](C)([C@@H]1OC)n1c3ccccc3c3c4c(c5c6ccccc6n2c5c31)C(=O)NC4 [Staurosporine],0.144
20,CO[C@@H]1C[C@@H](C[C@H]2CC[C@H](C)[C@H]([C@@H](C)C(=O)O)O2)O[C@]2(O[C@](C)([C@H]3CC[C@@](C)([C@@H]4O[C@@H]([C@H]5O[C@@](O)(CO)[C@H](C)C[C@@H]5C)C[C@@H]4C)O3)C[C@H]2C)[C@@H]1C [Nigericin],0.544
21,C[C@@H]1C[C@@H]([C@H](O)CC2CC(=O)NC(=O)C2)C(=O)[C@@H](C)C1 [Cycloheximide],0.263
22,COC[C@H]1OC(=O)c2coc3c2[C@@]1(C)C1=C(C3=O)[C@@H]2CCC(=O)[C@@]2(C)C[C@H]1OC(C)=O [Wortmannin],0.828 ± 0.024
